Results from paper PMC4336329 (PLoS ONE, 2015).
Out of some 310,000 compounds screened, about 2,200 (0.71%) showed an effect of 50% or more. Effects have a minus sign here. The list shows a part of the results.

Biological target: human ether-à-go-go-related gene (hERG) potassium channel (human, UniProt Q12809)
Assay: primary screen, population patch clamp on CHO cells stably expressing hERG

Sequence of human ether-à-go-go-related gene (hERG) potassium channel (Q12809 whole entry, looked up): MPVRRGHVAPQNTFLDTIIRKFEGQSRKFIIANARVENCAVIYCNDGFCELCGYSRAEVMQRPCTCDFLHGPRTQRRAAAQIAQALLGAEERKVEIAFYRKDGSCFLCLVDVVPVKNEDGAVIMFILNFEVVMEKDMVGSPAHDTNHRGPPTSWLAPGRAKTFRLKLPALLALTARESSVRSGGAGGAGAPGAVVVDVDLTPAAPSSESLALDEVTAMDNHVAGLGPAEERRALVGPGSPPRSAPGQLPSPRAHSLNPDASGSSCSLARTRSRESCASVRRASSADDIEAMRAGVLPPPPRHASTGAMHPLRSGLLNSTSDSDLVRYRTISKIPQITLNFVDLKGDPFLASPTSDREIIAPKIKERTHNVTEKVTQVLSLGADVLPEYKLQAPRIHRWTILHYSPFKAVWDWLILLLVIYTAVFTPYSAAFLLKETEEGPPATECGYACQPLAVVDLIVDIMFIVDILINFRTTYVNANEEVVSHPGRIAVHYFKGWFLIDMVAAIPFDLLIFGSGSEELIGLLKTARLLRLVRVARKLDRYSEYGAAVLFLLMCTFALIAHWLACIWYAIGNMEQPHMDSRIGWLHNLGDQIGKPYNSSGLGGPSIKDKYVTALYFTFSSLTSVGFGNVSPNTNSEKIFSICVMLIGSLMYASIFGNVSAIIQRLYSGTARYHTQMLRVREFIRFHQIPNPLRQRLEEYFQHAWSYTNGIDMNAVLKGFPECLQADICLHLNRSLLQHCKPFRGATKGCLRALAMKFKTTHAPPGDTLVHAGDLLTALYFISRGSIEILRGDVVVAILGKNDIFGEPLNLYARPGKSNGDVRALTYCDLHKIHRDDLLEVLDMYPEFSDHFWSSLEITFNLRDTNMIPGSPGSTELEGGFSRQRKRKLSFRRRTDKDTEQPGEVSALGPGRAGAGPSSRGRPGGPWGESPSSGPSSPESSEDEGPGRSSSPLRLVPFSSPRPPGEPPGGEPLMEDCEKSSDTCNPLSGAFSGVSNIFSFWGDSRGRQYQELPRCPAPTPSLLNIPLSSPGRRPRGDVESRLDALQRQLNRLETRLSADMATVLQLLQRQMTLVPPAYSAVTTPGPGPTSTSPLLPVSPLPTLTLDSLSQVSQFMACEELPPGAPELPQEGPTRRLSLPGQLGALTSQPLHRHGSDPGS

Row | Compound | hERG current change (%, negative = inhibition) at 1uM
1 | COc1ccccc1N=C1SCC(=O)N1c1ccccc1OC | 4.93%
2 | COc1cc(/C=N/NC(=O)C(=O)/C=C2\NC3(CCCC3)Cc3ccccc32)ccc1O | 15.5%
3 | CC(CCc1ccccc1)NC(=O)COC(=O)c1ccc([N+](=O)[O-])cc1 (stereo not drawn) | 5.37%
4 | Nc1nc(CSc2ccc(Cl)cc2)nc(N2CCCCC2)n1 | -0.564%
5 | CCC(C)NC(=O)CSc1nc2ccccc2c(=O)n1CCCN1CCCCC1 (stereo not drawn) | 14%
6 | COCCCNC(=O)Cn1cc(C(=O)c2cccs2)c2ccccc21 | 7.16%
7 | Cc1ccc(S(=O)(=O)N(C)C)cc1NC(=O)Nc1ccccc1 | 13.7%
8 | CC(C)Cc1ccc(S(=O)(=O)N2CCN(C(=O)c3ccco3)CC2)cc1 | 11.4%
9 | O=C(NNc1ccc(Cl)cc1)c1c(F)cccc1Cl | 14.5%
10 | CCOC(=O)CSc1nnc(CNc2ccccc2Cl)n1-c1ccccc1 | 7.23%
11 | CCOC(=O)c1c(NC(=O)/C=C/C(=O)O)sc(C)c1-c1ccc(F)cc1 | 19.5%
12 | COc1ccc(CCC(=O)N2CCN(S(=O)(=O)c3ccc(OC(F)(F)F)cc3)CC2)cc1 | -3.48%
13 | CCNC(=O)NC(=O)C(C)OC(=O)c1ccc(-n2nc(SC)sc2=S)cc1 (stereo not drawn) | 6.17%
14 | CC(=O)Nc1ccc(NC(=O)c2ccc(CN3CCc4ccccc4C3)cc2)cc1 | 7.98%
15 | CCOc1ccc(C(=O)NC(=S)Nc2ccc(NC(=O)c3ccco3)c(C)c2)cc1[N+](=O)[O-] | 17.5%
16 | O=C1C=C(c2ccc3[nH]ccc3c2)C[C@@H](c2ccc(F)cc2)C1 | 5.61%
17 | CC(=O)Nc1nnc(S(=O)(=O)N2CCN(c3ccc([N+](=O)[O-])cc3Cl)CC2)s1 | -4.58%
18 | O=C(CSc1nnc(-c2cccnc2)n1Cc1ccco1)Nc1nc(-c2ccc(F)cc2)cs1 | -33.6%
19 | Cc1nc2ccccc2c(=O)n1NC(=O)c1c(F)cccc1F | -1.93%
20 | Cc1ccc(C(=O)NC2CCS(=O)(=O)C2)cc1S(=O)(=O)N1CCCC1 (stereo not drawn) | 2.16%
21 | CN1CCN(/C=N/c2sc3c(c2C#N)CCCCC3)CC1 | 10.1%
22 | Cc1ccc(-n2sc3ccccc3c2=O)cc1S(=O)(=O)N1CCCCC1 | 14%

Row | Compound | hERG current change (%, negative = inhibition) at 1uM
23 | COc1ccc(Cl)cc1NC(=O)C12CCC(C)(C(=O)O1)C2(C)C (stereo not drawn) | 1.15%
24 | Cc1ccc(Nc2ccc([N+](=O)[O-])ccc2=O)cc1 | 10.8%
25 | CCC(C(=O)N1CCN(S(C)(=O)=O)CC1)c1ccccc1 (stereo not drawn) | -6.56%
26 | Cc1ccc(NC(=O)N2CCC(C(=O)c3ccc(F)cc3)CC2)cc1 | 6.24%
27 | CCOc1ccc(S(=O)(=O)Nc2cccc(C(=O)NCCCN3CCCC3=O)c2)cc1 | 12.9%
28 | CN(CC(=O)Nc1ccc(C(N)=O)cc1)CC(=O)Nc1ccccc1Cl | 10.4%
29 | COc1cccc(-c2c(-c3cc(OC)cc(OC)c3)n(C)c3ccc(-c4ccc(OC)nc4)cc23)c1 | 12.2%
30 | CC(C)N(Cc1cc2ccccc2[nH]c1=O)C(=O)C(C)(C)C | 5.63%
31 | COC(=O)CN1C(=S)N(c2ccc(F)cc2)C(=O)C1CC(=O)Nc1ccc(F)cc1 (stereo not drawn) | 1.71%
32 | C=C(C)Cn1c(NCCC)nc2c1c(=O)n(C)c(=O)n2C | 6.7%
33 | COc1ccc(Cl)cc1NC(=S)Nc1cccnc1 | 6.72%
34 | O=C(NC(=S)N(Cc1ccccc1)Cc1ccccc1)c1ccccc1F | 14.8%
35 | COc1cccc(C2C3=C(CC(C)(C)CC3=O)Nc3cc(OC)c(OC)cc32)c1 (stereo not drawn) | 12.4%
36 | CCn1nc(C)c(NC(=O)CCCSc2nc(-c3ccco3)cc(C(F)(F)F)n2)c1C | 10.1%
37 | C=CCNC(=O)c1n[nH]c2c1CC(C(C)(C)CC)CC2 (stereo not drawn) | 16.2%
38 | COCCCn1c(=O)c2ccccc2n(CC(=O)Nc2ccc3c(c2)OCCO3)c1=O | 15.6%
39 | CC(=O)N1CCC(C(=O)Nc2ccc(S(=O)(=O)N3CCC(C)CC3)cc2)CC1 | -1.37%
40 | Cc1nn(CC2CC2)c(=O)n1N(C)c1ncc(C(F)(F)F)cc1Cl | 5.29%
41 | CCOC(=O)c1nn(-c2cccc(Cl)c2)c(C)c1C(C)=O | 8.56%
42 | COCCSc1ccccc1C(=O)Nc1cccnc1 | 14.2%
43 | Cc1ccc(C(=O)Cn2c(N3CCOCC3)nc3c2c(=O)n(C)c(=O)n3C)cc1 | 5.32%
44 | CCCCNC(=O)C1CC(=O)N(CCc2ccc(C)cc2)C1 (stereo not drawn) | 13.9%

Row | Compound | hERG current change (%, negative = inhibition) at 1uM
45 | CCCOc1ccc(Cc2nn[nH]n2)cc1 | 14.6%
46 | COc1cccc(NC(=O)Cn2c3ccc(F)cc3c3nc4n(c(=O)c32)CCS4)c1 | 10.6%
47 | CCOC1=C/C(=C/c2c(N)n3oc(C)cc3nc2=O)C=CC1=O | 7.78%
48 | CCOC(=O)c1cnc(-n2cc(C)cn2)nc1NCc1ccc2c(c1)OCO2 | 9.44%
49 | CCCC(=O)n1nc(-c2ccc(Cl)cc2)nc1SC | 21.8%
50 | COc1cc2c(cc1OC)CN(CC(=O)NC(=O)NC(C)(C)C)CC2 | 8.35%
51 | Cc1ccc(CS(=O)(=O)c2ccc(C(=O)N3CCCCC3)cc2[N+](=O)[O-])cc1 | 1.81%
52 | Cc1cc(C)nc(SCC(=O)c2ccc3c(c2)OCCO3)n1 | 1.89%
53 | CCN(CC)S(=O)(=O)c1cccc(C(=O)N2CCCc3ccccc32)c1 | 5.5%
54 | N#CCCN1CCN(S(=O)(=O)c2ccc3c(c2)CCC3)CC1 | 13.8%
55 | CS(=O)(=O)N(CC(=O)Nc1ccccc1-c1ccccc1)c1cccc(F)c1 | 13.2%
56 | C/C(O)=c1/c(=O)nc2cccc3c2=c1c1ccccc1c3=O | 0.0122%
57 | Cc1cc(-c2nc(-c3ccc(C(C)(C)C)cc3)no2)no1 | 13.6%
58 | COC(=O)c1cc(NC2c3ccccc3C(=O)N2c2cccnc2)cc(C(=O)OC)c1 (stereo not drawn) | -7.48%
59 | CCCn1c2ccccc2c2cnn(CC(=O)NCCCN3CCCCC3CC)c(=O)c21 (stereo not drawn) | -5.89%
60 | Cc1ncc([N+](=O)[O-])n1CCN1C(=O)c2ccccc2C1=O | 5.97%
61 | CC(OC(=O)C1=COCCO1)C(=O)NC(C)c1ccc(Cl)cc1Cl (stereo not drawn) | 8.62%
62 | COc1ccccc1N1CCN(C(=O)C(=O)c2c(C)[nH]c3ccccc23)CC1 | 13.5%
63 | O=C(NCc1ccc(F)cc1)c1ccc(S(=O)(=O)N2CCCCC2)cc1 | 24.3%
64 | CC(C)Oc1ccc(CNC(=O)C2CCN(C(=O)N3CCOc4ccccc43)CC2)cc1 | 6.25%
65 | COc1cc(N=Nc2ccc3ccccc3c2)ccc1O | 12.7%
66 | COc1ccc(NS(=O)(=O)c2ccc(NC(=O)c3ccc(N(C)S(C)(=O)=O)cc3)cc2)cc1 | 7.73%

Row | Compound | hERG current change (%, negative = inhibition) at 1uM
67 | CC(C)CNC(=O)CN(c1ccccc1)S(=O)(=O)c1ccccc1[N+](=O)[O-] | 8.13%
68 | O=[n+]1c2c(n([O-])c3cc(Cl)ccc31)CCCC2 | -1.7%
69 | COc1cc(Br)c(C(=O)c2nccc3cc(OC)c(OC)cc23)cc1OC | 10.6%
70 | CN(C)C(=O)c1ccc(-c2cc(C(F)(F)F)n(C)n2)s1 | 9.77%
71 | CCn1c(=O)cc(OCC(=O)N2CCCC2)c2ccccc21 | 10.9%
72 | O=C(COC(=O)c1ccc2ccccc2c1)NCCCc1ccccc1 | 14.9%
73 | CCN1CCN(c2nnc(-c3ccc(F)cc3)c3ccccc23)CC1 | -16.1%
74 | O=C(CCn1nnc2ccccc21)Nc1nnc(-c2ccccc2F)s1 | 4.64%
75 | O=C(CSc1nnc(-c2ccc(F)cc2)c2ccccc12)Nc1ccccc1 | 15.2%
76 | CC(=O)c1cccc(NC(=O)COc2ccc(S(=O)(=O)N3CCCCC3)cc2)c1 | 4.37%
77 | Cc1ccc(/C=N/N=C/c2ccc(C)s2)s1 | 9.77%
78 | COc1ccc(-n2nc(C(=O)O)nc2-c2ccccc2)cc1 | 11.9%
79 | O=C(CSc1nnnn1-c1cccc(F)c1)NC1CCCCC1 | 9.66%
80 | COCCC(=O)N1CCC(Oc2ccc(C(=O)NC3Cc4ccccc4C3)cc2)CC1 | 11.5%
81 | O=S(=O)(NCC(Nc1ccc(Cl)cc1)c1ccccc1)c1ccccc1 (stereo not drawn) | 0.687%
82 | O=C(O)CCSCC(=O)Nc1c(C(=O)C2CC2)oc2ccccc12 | 14.2%
83 | Cc1ccc(NC(=O)c2ccc(NC3=NC4CS(=O)(=O)CC4S3)cc2)cc1 (stereo not drawn) | 11.1%
84 | O=C(CN(C(=O)CNS(=O)(=O)c1ccccc1)C1CCCC1)NCc1ccco1 | 4.65%
85 | CCN(CC)c1ccc(NC(=O)c2cccc(F)c2)c(C)c1 | 0.278%
86 | COc1cccc(OCCn2cc(C(=O)c3ccco3)c3ccccc32)c1 | 15.4%
87 | O=c1[nH]c2ccc(S(=O)(=O)Nc3ccc(Br)cc3)cc2[nH]1 | 13.3%
